# This is one part of the list.
# B1: MAA (Maackia amurensis), P0DKL3 (protein)
# chain: MATSNSKPTQVLLATFLTFFFLLLNNVNSSDELSFTINNFVPNEADLLFQGEASVSSTGVLQLTRVENGQPQKYSVGRALYAAPVRIWDNTTGSVASFSTSFTFVVKAPNPDITSDGLAFYLAPPDSQIPSGSVSKYLGLFNNSNSDSSNQIVAVELDTYFAHSYDPWDPNYRHIGIDVNGIESIKTVQWDWINGGVAFATITYLAPNKTLIASLVYPSNQTTFSVAASVDLKEILPEWVRVGFSAATGYPTEVETHDVLSWSFTSTLEANCDAATENNVHIARYTA
# Columns and labels:
# Assay in all cases: glycan array binding signal (z-score within array); higher = stronger binding
# Conditions in all cases: glycan notation: IUPAC condensed, linker removed
# [1] = biological target: GalNAc3S(b1-4)GlcNAc
# Summary of the method: (§1)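 Negative Z-scores can be read as non-binding. The Z-score is calculated within each array and then averaged across arrays of one protein sequence at different concentrations or buffers and across linkers. Arrays, 3228 in all, were curated from the Consortium for Functional Glycomics database and kept only where the protein sequence was available.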
# [2] = biological target: GalNAc3S(b1-4)GlcNAc3S
# Summary of the method: as §1
# [3] = biological target: GalNAc3S(b1-4)[Fuc(a1-3)]GlcNAc
# Summary of the method: as §1
# [4] = biological target: GalNAc4S6S(b1-4)GlcNAc
# Summary of the method: as §1
# [5] = biological target: GalNAc6S(b1-4)GlcNAc
# Summary of the method: as §1
# [6] = biological target: Glc(a1-4)Glc
# Summary of the method: as §1
# [7] = biological target: Glc(a1-4)Glc(a1-4)Glc(a1-4)Glc
# Summary of the method: as §1
# [8] = biological target: Glc(a1-6)Glc(a1-6)Glc
# Summary of the method: as §1
# [9] = biological target: Glc(a1-6)Glc(a1-6)Glc(a1-6)Glc
# Summary of the method: as §1
# [10] = biological target: Glc(b1-4)Glc
# Summary of the method: as §1
# [11] = biological target: Glc(b1-6)Glc
# Summary of the method: as §1
# [12] = biological target: GlcA(b1-3)Gal
# Summary of the method: as §1
# [13] = biological target: GlcA(b1-3)GlcNAc
# Summary of the method: as §1
# [14] = biological target: GlcA(b1-6)Gal
# Summary of the method: as §1
# [15] = biological target: GlcA3S(b1-3)Gal(b1-4)GlcNAc(b1-2)Man
# Summary of the method: as §1
# [16] = biological target: GlcA3S(b1-3)Gal(b1-4)GlcNAc(b1-3)Gal(b1-4)Glc
# Summary of the method: as §1
# [17] = biological target: GlcNAc(a1-3)Gal(b1-4)GlcNAc
# Summary of the method: as §1
# [18] = biological target: GlcNAc(a1-4)Gal(b1-3)GlcNAc
# Summary of the method: as §1
# [19] = biological target: GlcNAc(a1-4)Gal(b1-4)GalNAc
# Summary of the method: as §1
# [20] = biological target: GlcNAc(a1-4)Gal(b1-4)GlcNAc
# Summary of the method: as §1
# [21] = biological target: GlcNAc(a1-4)Gal(b1-4)GlcNAc(b1-3)Gal(b1-4)Glc
# Summary of the method: as §1
# [22] = biological target: GlcNAc(a1-4)Gal(b1-4)GlcNAc(b1-3)Gal(b1-4)GlcNAc
# Summary of the method: as §1
# [23] = biological target: GlcNAc(a1-4)Gal(b1-4)GlcNAc(b1-3)Gal(b1-4)GlcNAc(b1-3)Gal(b1-4)GlcNAc
# Summary of the method: as §1
# [24] = biological target: GlcNAc(a1-4)Gal(b1-4)GlcNAc(b1-3)Gal(b1-4)[Fuc(a1-3)]GlcNAc(b1-3)Gal(b1-4)[Fuc(a1-3)]GlcNAc
# Summary of the method: as §1
# [25] = biological target: GlcNAc(a1-6)Gal(b1-4)GlcNAc
# Summary of the method: as §1
# [26] = biological target: GlcNAc(b1-2)Gal(b1-3)GalNAc
# Summary of the method: as §1
# [27] = biological target: GlcNAc(b1-2)Man(a1-3)[GlcNAc(b1-2)Man(a1-6)]Man(b1-4)GlcNAc(b1-4)GlcNAc
# Summary of the method: as §1
# [28] = biological target: GlcNAc(b1-2)Man(a1-3)[GlcNAc(b1-2)Man(a1-6)]Man(b1-4)GlcNAc(b1-4)[Fuc(a1-6)]GlcNAc
# Summary of the method: as §1
# [29] = biological target: GlcNAc(b1-2)Man(a1-3)[GlcNAc(b1-4)][GlcNAc(b1-2)Man(a1-6)]Man(b1-4)GlcNAc(b1-4)GlcNAc
# Summary of the method: as §1
# [30] = biological target: GlcNAc(b1-2)Man(a1-3)[GlcNAc(b1-4)][GlcNAc(b1-2)Man(a1-6)]Man(b1-4)GlcNAc(b1-4)[Fuc(a1-6)]GlcNAc
# Summary of the method: as §1
# [31] = biological target: GlcNAc(b1-2)[GlcNAc(b1-4)]Man(a1-3)[GlcNAc(b1-2)Man(a1-6)]Man(b1-4)GlcNAc(b1-4)GlcNAc
# Summary of the method: as §1
# [32] = biological target: GlcNAc(b1-2)[GlcNAc(b1-4)]Man(a1-3)[GlcNAc(b1-4)][GlcNAc(b1-2)Man(a1-6)]Man(b1-4)GlcNAc(b1-4)GlcNAc
# Summary of the method: as §1
# [33] = biological target: GlcNAc(b1-2)[GlcNAc(b1-4)]Man(a1-3)[GlcNAc(b1-4)][GlcNAc(b1-2)[GlcNAc(b1-6)]Man(a1-6)]Man(b1-4)GlcNAc(b1-4)GlcNAc
# Summary of the method: as §1
# [34] = biological target: GlcNAc(b1-2)[GlcNAc(b1-4)]Man(a1-3)[GlcNAc(b1-4)][GlcNAc(b1-2)[GlcNAc(b1-6)]Man(a1-6)]Man(b1-4)GlcNAc(b1-4)[Fuc(a1-6)]GlcNAc
# Summary of the method: as §1
# [35] = biological target: GlcNAc(b1-2)[GlcNAc(b1-6)]Man(a1-6)[GlcNAc(b1-2)Man(a1-3)]Man(b1-4)GlcNAc(b1-4)GlcNAc
# Summary of the method: as §1
# [36] = biological target: GlcNAc(b1-2)[GlcNAc(b1-6)]Man(a1-6)[GlcNAc(b1-2)Man(a1-3)]Man(b1-4)GlcNAc(b1-4)[Fuc(a1-6)]GlcNAc
# Summary of the method: as §1
# [37] = biological target: GlcNAc(b1-2)[GlcNAc(b1-6)]Man(a1-6)[GlcNAc(b1-4)][GlcNAc(b1-2)Man(a1-3)]Man(b1-4)GlcNAc(b1-4)GlcNAc
# Summary of the method: as §1
binder,measurement,setting,value
B1,glycan array binding signal (z-score),[1],2.31
same,glycan array binding signal (z-score),[2],-0.286
same,glycan array binding signal (z-score),[3],-0.291
same,glycan array binding signal (z-score),[4],-0.321
same,glycan array binding signal (z-score),[5],-0.065
same,glycan array binding signal (z-score),[6],-0.165
same,glycan array binding signal (z-score),[7],-0.135
same,glycan array binding signal (z-score),[8],-0.199
same,glycan array binding signal (z-score),[9],-0.192
same,glycan array binding signal (z-score),[10],-0.161
same,glycan array binding signal (z-score),[11],-0.215
same,glycan array binding signal (z-score),[12],-0.189
same,glycan array binding signal (z-score),[13],-0.245
same,glycan array binding signal (z-score),[14],-0.167
same,glycan array binding signal (z-score),[15],-0.269
same,glycan array binding signal (z-score),[16],-0.278
same,glycan array binding signal (z-score),[17],0.192
same,glycan array binding signal (z-score),[18],-0.226
same,glycan array binding signal (z-score),[19],-0.158
same,glycan array binding signal (z-score),[20],0.28
same,glycan array binding signal (z-score),[21],0.343
same,glycan array binding signal (z-score),[22],0.358
same,glycan array binding signal (z-score),[23],0.056
same,glycan array binding signal (z-score),[24],-0.055
same,glycan array binding signal (z-score),[25],-0.236
same,glycan array binding signal (z-score),[26],-0.23
same,glycan array binding signal (z-score),[27],-0.194
same,glycan array binding signal (z-score),[28],-0.161
same,glycan array binding signal (z-score),[29],-0.301
same,glycan array binding signal (z-score),[30],-0.164
same,glycan array binding signal (z-score),[31],-0.203
same,glycan array binding signal (z-score),[32],-0.232
same,glycan array binding signal (z-score),[33],-0.265
same,glycan array binding signal (z-score),[34],-0.307
same,glycan array binding signal (z-score),[35],-0.214
same,glycan array binding signal (z-score),[36],-0.247
same,glycan array binding signal (z-score),[37],-0.266
